The values that follow come from the supplement of paper PMC11417369.

± gives the standard deviation of the averaged measurements. The list shows a part of the results.

This experiment has as its system PfAP2-EXP AP2 domain (GST-tagged). As to the kind of experiment: gcPBM binding intensity (ln(normalized median fluorescence intensity)); higher = stronger DNA binding. Summed up:
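Probes on an Agilent 4 × 180k array were primer-extended, double-stranded and 36 bp long, taken from intergenic genomic regions, with negative controls added. GST-tagged P. falciparum DNA-binding domains from E. coli, about 25 μg on average, were applied to the array for 1 h in 1× PBS containing 1% milk, 0.2 mg/ml BSA, 0.5% salmon testes DNA and 0.03% Triton X-100. Binding intensity, obtained after Alexa488 anti-GST antibody detection and a 488 nm scan, is the highest Masliner-normalised natural-log median intensity across replicate spots of either probe orientation.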
As to “AATATAATAATATTTTGTACATATCCTATGTATGAG [XGTACX_site8601]”, the “gcPBM binding intensity (ln)” value worked out at 8.43 ± 0.32.

In the case of “AACGTAAAACATATCTATCAAAATAAATCATTAATC [TGCATGCA_negctrl_site68]”, the “gcPBM binding intensity (ln)” value was 8.44 ± 0.35. With “ATGAATACAAAATTATACAAAATTATCAAAAGTATG [CACACA_negctrl_site1453]”, the “gcPBM binding intensity (ln)” value was found to be 8.38 ± 0.35.

Turning to “ATACATAAATATATATGTACATATATATATATATAT [XGTACX_site1055]”, the “gcPBM binding intensity (ln)” value was 9.98 ± 0.42. Regarding “TGCAGTCTGGAGAAACGTACATAGTATCTGGTAGCT [XGTACX_site4937]”, the “gcPBM binding intensity (ln)” value was determined as 8.78 ± 0.41. Take “AAAATATATTTAAATTGTACACGTTACCATAACAAT [XGTACX_site2598]”: the “gcPBM binding intensity (ln)” value was 8.63 ± 0.33. Under “CTTTTTATTTAGAACACACACAAAAAAAAAAAAAAA [CACACA_site1761]” stands 8.19 ± 0.46; under “ATATATTAATAATTTTGTACGCATTTCCTTTTTATT [XGTACX_site1638]”, 8.93 ± 0.46. For the sequence “AAAAAAAAAAAAAAATGTACAAATAAAGAAATATGA [XGTACX_site4371]”, the “gcPBM binding intensity (ln)” value was 8.64 ± 0.69. The figure for “GAAAATATTTCCGTATGTACTTATTTTAGTCTACTA [XGTACX_site471]” is 8.62 ± 0.57; for “AATATTTTCTTGTACGCATGCACATCCAAATTATAT [TGCATGCA_site873]” it is 9.84 ± 0.33. As for “TGACCTGTTCAGGTAACACACATATAAACACATACA [CACACA_site4186]”, the “gcPBM binding intensity (ln)” value is 8.8 ± 0.43.

On to “GTGTATAGAATGGTTTCTTTTAAGGTTTTTATTTTT [CACACA_negctrl_site564]”, for which the “gcPBM binding intensity (ln)” value amounted to 8.57 ± 0.42. For “AGGTTCTTTTTAAATGGTACACATAATTTGAAGATA [XGTACX_site400]”, the “gcPBM binding intensity (ln)” value is 8.47 ± 0.26. The figure for “TCTTAAAAGGGGAATGGAATGGAGAAAATGAAATAA [GTGCAC_negctrl_site30]” is 8.71 ± 0.54; for “ATACCCACTTAAAATACACACACACCGAAAAAAAAA [CACACA_site8867]” it is 8.61 ± 0.61.

In the case of “AATAAGAGGATACATTGTACATAAAAAAAAAAAATA [XGTACX_site1815]”, the “gcPBM binding intensity (ln)” value stood at 8.67 ± 0.48. In the case of “TTTTGAAGCTTTAAAACATATATATATATATATATA [CACACA_negctrl_site184]”, the “gcPBM binding intensity (ln)” value worked out at 10.3 ± 0.4.

For “AGCAAAACAAAAAAATTAAAATTAACATATAATCAT [GTGCAC_negctrl_site393]”, the “gcPBM binding intensity (ln)” value is 8.44 ± 0.2.

Regarding “TATTGTTCTTATTTAGTGCATATATAATATAATATA [GTGCAC_site9827]”, the “gcPBM binding intensity (ln)” value stood at 8.78 ± 0.35. For the sequence ATGTTCTTATTATTGGTGCAAGAATACACAAGAAAA, the “gcPBM binding intensity (ln)” value came out at 8.78 ± 0.23. With “TATGTGAATAAATAAGCACACATAAACACATATATA [CACACA_site9359]”, the “gcPBM binding intensity (ln)” value was 8.82 ± 0.44. “AACACATAATAAAATTGTACCCAACATTTCTTTTGA [XGTACX_site8061]”: the “gcPBM binding intensity (ln)” value was 8.31 ± 0.41.

For “ATAAAAATTTAAAAAGAACACACGAAAGAAGGACTT [CACACA_site3929]”, the “gcPBM binding intensity (ln)” value came to 8.95 ± 0.49.

Take “GTGAGCTCAGACTACACACACAAAGAAAAAAATAAA [CACACA_site1553]”: the “gcPBM binding intensity (ln)” value was 8.67 ± 0.51.

For “ATATTTTTAGGTGATTATTATTCGGAGAAGCGAATT [CACACA_negctrl_site1097]”, the “gcPBM binding intensity (ln)” value stood at 8.29 ± 0.47. “AATACCTACCAAACATGTACATACGCTTCTCAAATA [XGTACX_site5535]”: the “gcPBM binding intensity (ln)” value came out at 8.88 ± 0.39. For “TATATAAACACGTACACACACATATCTGTATTTATA [CACACA_site5858]”, the “gcPBM binding intensity (ln)” value was determined as 8.88 ± 0.2. Turning to “ATACAACAAAAATAAGCACACACAAATATACATACA [CACACA_site9201]”, the “gcPBM binding intensity (ln)” value was found to be 8.82 ± 0.41. Take “AACAAATACAGACACACACACACACCCAAAAAAAAA [CACACA_site515]”: the “gcPBM binding intensity (ln)” value was 8.51 ± 0.52. “TCCATATTTGTTCACACACACACATATTTATATATA [CACACA_site3570]”: the “gcPBM binding intensity (ln)” value was found to be 8.84 ± 0.42. Turning to “ATTAAATGTTATATTTGTACATATTATATATATATA [XGTACX_site5095]”, the “gcPBM binding intensity (ln)” value stood at 9.62 ± 0.37. The figure for “TTCATTTTTTATTATAGTACACATAATATTTGCAGA [XGTACX_site4032]” is 8.55 ± 0.27; for “TTTGTTATTTTTTATTGTACTTTTTTTCTTTCATAA [XGTACX_site4302]” it is 8.85 ± 0.43. Turning to “TTTTTTAAATGTATTAAAATTATATATATATATATA [GTGCAC_negctrl_site570]”, the “gcPBM binding intensity (ln)” value was found to be 10.2 ± 0.25. The figure for “AATCAAAACAACAATAGTACATAAAAAAACAAAACA [XGTACX_site4181]” is 8.77 ± 0.49; for “ATACATAAATTTAGAAGTACATAACAAATTTTTAAA [XGTACX_site7448]” it is 8.55 ± 0.33. The figure for “AAAAAAAAAAAAAACACACACACAAATACAAATGGT [CACACA_site1721]” is 8.79 ± 0.56; for “TTTCTTATTTTGGATTGTACGTATATTTTTCATTTT [XGTACX_site224]” it is 8.93 ± 0.38; for “TCCTATATATAAATATTAATATATATGTATTGGTAT [GTGCAC_negctrl_site23]” it is 8.29 ± 0.41. In the case of “TATAATAATAATTATACATGCATGAATATTTATATG [TGCATGCA_site811]”, the “gcPBM binding intensity (ln)” value turned out to be 8.86 ± 0.16. “ATGGACAAGTTAAACGCACACAAATATATACACCCA [CACACA_site8478]”: the “gcPBM binding intensity (ln)” value was found to be 8.91 ± 0.36.

In the case of “AATAAAAAAAATAGCATACACACATATATACATATA [CACACA_site659]”, the “gcPBM binding intensity (ln)” value came out at 8.45 ± 0.25. “AACAAAAAAAAAAAAAAAAAAAAAAAAAAAAAAATG [CACACA_negctrl_site1127]”: the “gcPBM binding intensity (ln)” value stood at 7.91 ± 0.51. Turning to “TTACACATGAGAAAATGTACATATAATAAAATATGT [XGTACX_site904]”, the “gcPBM binding intensity (ln)” value amounted to 8.62 ± 0.33. The figure for “TTATATTTCAATCATATTGTCACAAGTCATATTTAT [GTGCAC_negctrl_site366]” is 8.24 ± 0.23; for TATATATATATGTGCGTGCACGTTACCTTGCTGTTT it is 10.1 ± 0.24; for “AAATTTAACAACTTCAAACACACAATATATATATAT [CACACA_site2092]” it is 9.87 ± 0.18. For the sequence “TTTCCAAATACAACTACACACAAACAAAAGTTATAT [CACACA_site6544]”, the “gcPBM binding intensity (ln)” value stood at 8.7 ± 0.5. “TTAAATATAATTATATGTACATATTTATGTATATAT [XGTACX_site5811]”: the “gcPBM binding intensity (ln)” value came out at 8.26 ± 0.27. Take “AGATTGTATTTATGTACACACATTTTTGGAATATGA [CACACA_site1340]”: the “gcPBM binding intensity (ln)” value was 8.98 ± 0.5. “TTGATTAAAATTAGTACACACAAAATACATGCGGGG [CACACA_site5284]”: the “gcPBM binding intensity (ln)” value was 9.2 ± 0.3. “ATATTATAATGTTTTTACGAATTCGCAAATTATTAT [GTGCAC_negctrl_site470]”: the “gcPBM binding intensity (ln)” value was found to be 8.64 ± 0.51. Consider “TTTTTTTTTTTTTTTTTTTTTTTTTTATGATATATA [GTGCAC_negctrl_site365]”, for which the “gcPBM binding intensity (ln)” value came to 7.74 ± 0.14. Under “AATTTACAAAAAAGAAAAAAAAAAAAAAAGATACTT [CACACA_negctrl_site1434]” stands 8.19 ± 0.47. Turning to “ATATGCACTCATTGTGCACACGCATATTACGAAAAG [CACACA_site2637]”, the “gcPBM binding intensity (ln)” value is 9.125 ± 0.064.
